Data: PubChem BioAssay AID1345083 (National Center for Advancing Translational Sciences (NCATS), 2018)
The campaign covered roughly 94,000 compounds. About 6,200 (6.6%) were called active. Where a call stands in place of a potency, no number is given. Inconclusive results, whose numbers are uncertain, are shown with a selection of clear calls. Calls follow the shape of the dose curve; as a rule, active = well fitted inhibition curve with a large enough effect; inconclusive = small, poorly fitted or top-dose-only effect; inactive = flat fitted curve, though single readings scatter. Potencies beside an inconclusive call are fits to weak or partial responses and may not hold up.
Potency is read from the fitted curve at half-maximal effect; tags tell the direction and shape of the fitted curve.

Assay: Cytotoxic Profiling in HEK 293 Cell Line of Diverse Libraries Using Quantitative High-Throughput Screening; also: nearly all actives have a fitted effect of over 60% in size
Details: HEK 293 viability, ATP luminescence (CellTiter-Glo), 48-72 h; series mostly up to 115 µM
Summary of the method: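 HEK 293 seeded at 250 cells/well receive compound via pintool. After 48 or 72 hr at 37 degree Celsius, 5% CO2 and 95% humidity, CellTiter-Glo is dispensed and luminescence read following 10 min at room temperature.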
In the case of FC(F)(F)CN1C2CCC1CN(c1ncnc3sc(Cl)nc13)C2, the Potency was “inactive”. With COc1cc2c(cc1Oc1cccc(N(C)C)c1)NC(=O)C21CCN(C(=O)C2CCC2)CC1 the Potency was inconclusive: 39.8 µM [inhibitor, partial curve]. In the case of COc1ccc(-c2cc([C@H]3CN4CC[C@H]3C[C@@H]4CNC(=O)CSCC(=O)O)nc(C)n2)cc1OC, the Potency was “inactive”. With COCC(=O)NC[C@H]1C[C@@H]2CCN1C[C@@H]2c1cc(-c2cccs2)nn1C the Potency was “inactive”. In the case of C=C[C@H]1CN2CC[C@H]1C[C@@H]2CNS(=O)(=O)c1ccccc1, the Potency was “inactive”. In the case of C=CCN(C)C(=O)[C@H]1CN2CCC1C[C@@H]2Cn1cc(CSc2ccccc2)nn1 (stereo not given in full), the Potency was “inactive”. In the case of CC(C)CN1Cc2ccccc2-n2ccnc2C12CCN(C(=O)c1ccn[nH]1)CC2, the Potency was active: 39.8 µM. For COc1ccc(C(=O)NC[C@H]2C[C@@H]3CCN2C[C@@H]3c2cc(-c3cccs3)nn2C)cc1, the Potency was inconclusive: 44.7 µM [inhibitor, partial curve]. For CSc1cccc(NC(=O)NC[C@H]2C[C@@H]3CCN2C[C@@H]3CN(C)c2ccccc2)c1, the Potency was active: 25.1 µM. In the case of COc1cc2c(cc1OCc1ccc(Cl)cc1)N(Cc1ccccc1)CC21CCN(C(C)=O)CC1, the Potency was inconclusive: 56.2 µM [inhibitor, partial curve, poor fit]. In the case of COc1cc2c(cc1OC1CCCC1)NC(=O)C21CCN(Cc2cccnc2)CC1, the Potency was active: 100 µM. In the case of COC[C@H]1CCCN1C[C@H]1CN2CC[C@H]1C[C@@H]2CNC(=O)c1ccc(C(F)(F)F)cc1, the Potency was inconclusive: 100 µM [inhibitor, partial curve, poor fit]. With CC[C@H]1CN2CC[C@H]1C[C@@H]2CNC(=O)Nc1cc(OC)cc(OC)c1 the Potency was “inactive”. For O=C1NC[C@H]2CN(C3CCOCC3)CCN12, the Potency was “inactive”. For CCNC(=O)NC[C@H]1C[C@@H]2CCN1C[C@@H]2c1cc(-c2ccccc2)nn1C, the Potency was inconclusive: 50.1 µM [inhibitor, full curve, poor fit]. In the case of CC(=O)c1cccc(NC(=O)NC[C@H]2C[C@@H]3CCN2C[C@@H]3c2cc(-c3ccc(F)cc3)nc(C)n2)c1, the Potency was inconclusive: 50.1 µM [inhibitor, partial curve, poor fit]. With Cc1ccc(S(=O)(=O)NC[C@H]2C[C@@H]3CCN2C[C@@H]3CN2CCN(c3ccccn3)CC2)cc1 the Potency was “inactive”. For CSc1cccc(NC(=O)NC[C@H]2C[C@@H]3CCN2C[C@@H]3CN2CCOCC2)c1, the Potency was “inactive”. In the case of CC(C)S(=O)(=O)N1CC[C@@H]2COCCN(C)[C@@H]2C1, the Potency was “inactive”. With CCOC(=O)[C@H]1CN(C(=O)c2ccc3c(c2)OCO3)[C@]2(C)C(=O)N(C)c3ccccc3[C@H]12 the Potency was inconclusive: 89.1 µM [inhibitor, single point].
